Measurements as given in PubChem BioAssay AID434955 (Southern Research Specialized Biocontainment Screening …, 2010).
The list shows a part of the results. The main result of the screen is listed elsewhere. These columns were measured beside it and carry no call. Compounds called inactive in the main read-out are mostly missing here.

Assay: beta-lactam sensitization of Mtb H37Rv, H37Rv (AID 434955);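 also: growth measured after seven days incubation then overnight dye step; 0% = bacteria only wells and 100% = bacteria with antibiotic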
Conditions: M. tuberculosis H37Rv growth with meropenem, percent inhibition; measured here: primary screen without meropenem; at 25 µM
In the case of `COc1ccccc1-c1cc(C(=O)Nc2c(C)n(C)n(-c3ccccc3)c2=O)no1`, the inhibition was 22%. `Cc1[nH]c(C)c(S(=O)(=O)NCc2ccc(OC(C)C)cc2)c1C(=O)N1CCCC1` showed an inhibition of -0.16%. Work on `O=[N+]([O-])c1ccc(N2CCN(S(=O)(=O)c3ccc(Cl)cc3)CC2)cc1NCC1CCCO1` (stereo not drawn) yielded an inhibition of 1.97%. With `Cc1cccc(N2CCN(C(=O)C(C)n3nc(C)n4c(cc5occc54)c3=O)CC2)c1C` (stereo not drawn) the inhibition was 45.2%. For `Cc1c(NC(=S)NC(=O)c2cccc3ccccc23)cccc1C(=O)O`, the inhibition was -6.39%. Work on `Cc1ccc2c(c1)N(CC(=O)NCCCN1CC(C)CC(C)C1)C(=O)c1cccnc1O2` (stereo not drawn) yielded an inhibition of -15.7%. Work on `Cn1cnnc1SCC(=O)NC1CCCN(Cc2ccc(Cl)cc2)C1` (stereo not drawn) yielded an inhibition of -0.97%. With `CCOC(=O)C1CCCN(C(=O)c2cc3c(C)nc4ccccc4c3o2)C1` (stereo not drawn) the inhibition was 2.86%. With `CN(CCc1ccccn1)C(=O)CN(C)S(=O)(=O)c1ccc2c(c1)c(=O)n(C)c(=O)n2C` the inhibition was 4.97%. For `Cc1ccc(SCC(=O)O/N=C(\N)c2ccncc2)cc1`, the inhibition was 8.12%. For `CCCCN(CC)CCCNC(=O)CS(=O)(=O)Cc1nc(-c2cccc(OC)c2)oc1C`, the inhibition was -8.41%. With `CCOC(=O)c1sc(NC(=O)/C=C/c2cnn(C)c2C)c(C(=O)OCC)c1C` the inhibition was -7.65%. With `Cc1c(NC(=O)/C(C#N)=C/c2ccc(-c3cccc(Cl)c3)o2)c(=O)n(-c2ccccc2)n1C` the inhibition was -4.17%. With `O=C(NC(=O)c1ccccc1Cl)C(=O)Nc1ccc(Cl)cc1` the inhibition was -6%. With `CC1(c2ccc3c(c2)OCO3)NC(=O)N(CC(=O)NCCC2=CCCCC2)C1=O` (stereo not drawn) the inhibition was 5.9%. `COc1ccc(/C=N/NC(=O)C(=O)N2CCCCCC2)cc1O` gave an inhibition of 5.18%. `COc1ccc(-n2ncc3c(NCc4ccccn4)ncnc32)cc1` showed an inhibition of -8.18%. In the case of `CCC(=O)Nc1cccc(-c2ccc(N3CCCCC3)nn2)c1`, the inhibition was 2.67%. Compound `CCCN1C(=O)S/C(=C\c2ccc(N3CCOCC3)o2)C1=O` has an inhibition of 95.3%. With `COc1cc(OC)c(C(=O)Nc2cccc3ccccc23)cc1OC` the inhibition was 17.5%. Compound `CCOc1ccc(NC(=S)Nc2cccnc2)cc1` has an inhibition of 3.26%. `CNC(=O)c1c(NC(=O)c2ccc(S(=O)(=O)N3CCCCC3)cc2)sc2c1CCN(C(C)C)C2` gave an inhibition of 7.55%. Compound `CC(C)Cc1ccc(CN2CCCC(NC(=O)CCN3CCCO3)C2)cc1` (stereo not drawn) has an inhibition of 7.09%. Work on `CC(C(=O)Nc1ccc2c(c1)OCCO2)N1Cc2ccccc2C1=O` (stereo not drawn) yielded an inhibition of 0.66%. In the case of `CCCNc1c(NC(=O)C2CCC(C)CC2)c(=O)oc2ccccc12` (stereo not drawn), the inhibition was -0.01%. Work on `CCCSCCCNC(=O)Cn1cc2c(n1)CCC(C)C2` (stereo not drawn) yielded an inhibition of 2.95%. For `NNC(=O)c1cccc(O)c1`, the inhibition was 22.4%. `O=C1[C@@H]2Cc3c([nH]c4ccccc34)C(c3cccc(Br)c3)N2C(=O)CN1C1CCN(Cc2ccccc2)CC1` (stereo partly drawn) showed an inhibition of 96.2%. Compound `CCc1nnc(NC(=O)CSc2nnc(-c3ccco3)n2CC)s1` has an inhibition of -6.51%. For `CN(Cc1ccccn1)C(=O)c1ccc2nc(Cc3cccc(Cl)c3)oc2c1`, the inhibition was 12.1%. For `Cc1cc(NC(=O)c2ccc(C)o2)no1`, the inhibition was 10.6%. For `C/C(CC1CC(COCCC(C)C)OC1=O)=N\NC(N)=S` (stereo not drawn), the inhibition was -3.4%. `OCCN1CCN(CC(O)COC(c2ccc(F)cc2)c2ccc(F)cc2)CC1` (stereo not drawn) showed an inhibition of 4.14%. Work on `CC(C)C(NC(=O)C1CCCCC1)C(=O)N1CCN(c2ccc(F)cc2)CC1` (stereo not drawn) yielded an inhibition of -4.19%. `O=C(Nc1cccc(C(F)(F)F)c1)/C(=C\c1ccco1)NC(=O)c1cccs1` showed an inhibition of -12.3%. For `COc1cccc(/C=N/n2c(COc3ccccc3)n[nH]c2=S)c1OC`, the inhibition was 4.27%. For `Cn1c(CCN2CCOCC2)nc2cc(NC(=O)c3cccs3)ccc21`, the inhibition was -6.62%. Compound `Cc1nn(C)c(C(=O)Nc2cccc(Nc3ccccc3)c2)c1[N+](=O)[O-]` has an inhibition of 6.99%. Work on `CCOC(=O)c1[nH]c(C)c(C(=O)NC2CCCC2)c1C` yielded an inhibition of -18%. Work on `O=C(OC(C(=O)Nc1ccc(Cl)cc1C(F)(F)F)c1ccccc1)C1=COCCO1` (stereo not drawn) yielded an inhibition of 17.4%. `O=C(CSc1ccc2nnc(-c3cccnc3)n2n1)Nc1ccccc1` gave an inhibition of 2.32%. Compound `O=C(c1cc(-c2ccccc2)n[nH]1)N1CCN(S(=O)(=O)c2ccccc2)CC1` has an inhibition of -12.3%. `COc1ccc(-n2ncc3c(=O)n(CC(=O)OCc4ccccc4)cnc32)cc1` showed an inhibition of 7.64%. Compound `Cc1cc(S(=O)(=O)NC2CCCCC2)ccc1OCC(=O)N1CCOCC1` has an inhibition of 13.4%. `O=C(CN1CCN(c2ccccn2)CC1)Nc1ccc(Cl)c(C(F)(F)F)c1` gave an inhibition of 33%. `CCOc1ccc(-c2cc(CCCC(=O)NCCCOC)no2)cc1` showed an inhibition of -1.18%. With `CN(C)C1=C(Cl)C(=O)N(c2ccc(Cl)c(Cl)c2)C1=O` the inhibition was 50.4%. For `COc1ccc(NC(=O)CSc2nnc(C)c3ccccc23)cc1`, the inhibition was -2.04%. In the case of `Cc1cc(=O)oc2cc(O[C@@H]3O[C@H](CO)[C@@H](O)[C@H](O)[C@H]3O)ccc12`, the inhibition was 6.57%. With `COc1cccc(NC(=O)CSc2ccc3nnc(-c4cccnc4)n3n2)c1` the inhibition was 6.73%. `CC1CCC(C(=O)NC(C(=O)N2CCC(N3CCCCC3)CC2)C(C)C)CC1` (stereo not drawn) showed an inhibition of -10.8%. With `COCC1CCCCN1C(=O)c1ccc2oc(CCCc3ccccc3)nc2c1` (stereo not drawn) the inhibition was 8.49%. Work on `CCN(CC1CCCO1)C(=O)c1cc(COc2ccc(F)cc2F)on1` (stereo not drawn) yielded an inhibition of 27.4%. In the case of `CCOc1ccc(Cc2c(Cl)nc(N)nc2Cl)cc1`, the inhibition was 0.15%. `O=C(Nc1ccccc1N1CCCC1)c1ccc2c(c1)OCO2` gave an inhibition of 37.4%. Compound `CC1CCN(c2ccc(-c3cccs3)nn2)CC1` has an inhibition of 1.23%. Work on `O=S(=O)(NCCC1=CCCCC1)c1ccc(F)cc1` yielded an inhibition of 9.18%. Work on `Cc1ccc(-n2ncc3c2CCCC3NC(=O)CSc2ccccn2)cc1C` (stereo not drawn) yielded an inhibition of -4.12%. For `Cc1ccc(C(=O)COC(=O)CCN2C(=O)C3C4CC(C(Br)C4Br)C3C2=O)cc1` (stereo not drawn), the inhibition was -2.6%. For `CCC1CCCCN1CCCNC(=O)Cn1ncc2c(C)n(Cc3ccccc3Cl)c(C)c2c1=O` (stereo not drawn), the inhibition was -2.87%. `COc1ccccc1C(=O)Nc1sc2c(c1C(=O)NCc1ccco1)CCCC2` showed an inhibition of 22.2%. In the case of `CC(=C/c1ccccc1)/C=C1/SC(N2CCOCC2)=NC1=O`, the inhibition was 0.16%. With `O=C(c1cccc(-n2cnnn2)c1)N1CC=C(c2ccccc2)CC1` the inhibition was -1.45%. For `CC[C@@]1(c2ccccc2OC)C(=O)N(C(=O)OC)N1C(=O)OC`, the inhibition was -0.64%. With `CCn1c(=O)cc(OCC(=O)N(C)c2ccccc2F)c2ccccc21` the inhibition was -2.89%. In the case of `CCOC(=O)NC1c2ccccc2Oc2ccccc21`, the inhibition was 3.33%. `O=C(N/N=C/C(Br)=C\c1ccccc1)c1n[nH]c2c1CCC2` gave an inhibition of 82.3%. Compound `NC(=O)C1CCN(c2nc(C3CC3)nc3c2nnn3Cc2ccccc2Cl)CC1` has an inhibition of 2.03%.
